# The other results are listed elsewhere or left out.
# Tests used:
# Assay in all cases: glycan array binding signal (z-score within array); higher = stronger binding
# Conditions in all cases: glycan notation: IUPAC condensed, linker removed
# [1] = target: GlcNAc(a1-4)Gal(b1-3)GlcNAc
# How it was run: (§1)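 Negative Z-scores can be read as non-binding. The Z-score is calculated within each array and then averaged across arrays of one protein sequence at different concentrations or buffers and across linkers. Arrays, 3228 in all, were curated from the Consortium for Functional Glycomics database and kept only where the protein sequence was available.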
# [2] = target: GlcNAc(a1-4)Gal(b1-4)GalNAc
# How it was run: as §1
# [3] = target: GlcNAc(a1-4)Gal(b1-4)GlcNAc
# How it was run: as §1
# [4] = target: GlcNAc(a1-4)Gal(b1-4)GlcNAc(b1-3)Gal(b1-4)Glc
# How it was run: as §1
# [5] = target: GlcNAc(a1-4)Gal(b1-4)GlcNAc(b1-3)Gal(b1-4)GlcNAc
# How it was run: as §1
# [6] = target: GlcNAc(a1-4)Gal(b1-4)GlcNAc(b1-3)Gal(b1-4)GlcNAc(b1-3)Gal(b1-4)GlcNAc
# How it was run: as §1
# [7] = target: GlcNAc(a1-4)Gal(b1-4)GlcNAc(b1-3)Gal(b1-4)[Fuc(a1-3)]GlcNAc(b1-3)Gal(b1-4)[Fuc(a1-3)]GlcNAc
# How it was run: as §1
# [8] = target: GlcNAc(a1-6)Gal(b1-4)GlcNAc
# How it was run: as §1
# [9] = target: GlcNAc(b1-2)Gal(b1-3)GalNAc
# How it was run: as §1
# [10] = target: GlcNAc(b1-2)Man(a1-3)[GlcNAc(b1-2)Man(a1-6)]Man(b1-4)GlcNAc(b1-4)GlcNAc
# How it was run: as §1
# [11] = target: GlcNAc(b1-2)Man(a1-3)[GlcNAc(b1-2)Man(a1-6)]Man(b1-4)GlcNAc(b1-4)[Fuc(a1-6)]GlcNAc
# How it was run: as §1
# [12] = target: GlcNAc(b1-2)Man(a1-3)[GlcNAc(b1-4)][GlcNAc(b1-2)Man(a1-6)]Man(b1-4)GlcNAc(b1-4)GlcNAc
# How it was run: as §1
# [13] = target: GlcNAc(b1-2)Man(a1-3)[GlcNAc(b1-4)][GlcNAc(b1-2)Man(a1-6)]Man(b1-4)GlcNAc(b1-4)[Fuc(a1-6)]GlcNAc
# How it was run: as §1
# [14] = target: GlcNAc(b1-2)[GlcNAc(b1-4)]Man(a1-3)[GlcNAc(b1-2)Man(a1-6)]Man(b1-4)GlcNAc(b1-4)GlcNAc
# How it was run: as §1
# [15] = target: GlcNAc(b1-2)[GlcNAc(b1-4)]Man(a1-3)[GlcNAc(b1-4)][GlcNAc(b1-2)Man(a1-6)]Man(b1-4)GlcNAc(b1-4)GlcNAc
# How it was run: as §1
# [16] = target: GlcNAc(b1-2)[GlcNAc(b1-4)]Man(a1-3)[GlcNAc(b1-4)][GlcNAc(b1-2)[GlcNAc(b1-6)]Man(a1-6)]Man(b1-4)GlcNAc(b1-4)GlcNAc
# How it was run: as §1
# [17] = target: GlcNAc(b1-2)[GlcNAc(b1-4)]Man(a1-3)[GlcNAc(b1-4)][GlcNAc(b1-2)[GlcNAc(b1-6)]Man(a1-6)]Man(b1-4)GlcNAc(b1-4)[Fuc(a1-6)]GlcNAc
# How it was run: as §1
# [18] = target: GlcNAc(b1-2)[GlcNAc(b1-6)]Man(a1-6)[GlcNAc(b1-2)Man(a1-3)]Man(b1-4)GlcNAc(b1-4)GlcNAc
# How it was run: as §1
# [19] = target: GlcNAc(b1-2)[GlcNAc(b1-6)]Man(a1-6)[GlcNAc(b1-2)Man(a1-3)]Man(b1-4)GlcNAc(b1-4)[Fuc(a1-6)]GlcNAc
# How it was run: as §1
# [20] = target: GlcNAc(b1-2)[GlcNAc(b1-6)]Man(a1-6)[GlcNAc(b1-4)][GlcNAc(b1-2)Man(a1-3)]Man(b1-4)GlcNAc(b1-4)GlcNAc
# How it was run: as §1
# GlcNAc(b1-3)Fuc = target: GlcNAc(b1-3)Fuc
# How it was run: as §1
# GlcNAc(b1-3)Gal = target: GlcNAc(b1-3)Gal
# How it was run: as §1
# [21] = target: GlcNAc(b1-3)Gal(b1-3)GalNAc
# How it was run: as §1
# GlcNAc(b1-3)Gal(b1-4)Glc = target: GlcNAc(b1-3)Gal(b1-4)Glc
# How it was run: as §1
# [22] = target: GlcNAc(b1-3)Gal(b1-4)GlcNAc
# How it was run: as §1
# [23] = target: GlcNAc(b1-3)Gal(b1-4)GlcNAc(b1-2)Man(a1-3)[GlcNAc(b1-3)Gal(b1-4)GlcNAc(b1-2)Man(a1-6)]Man(b1-4)GlcNAc(b1-4)GlcNAc
# How it was run: as §1
# [24] = target: GlcNAc(b1-3)Gal(b1-4)GlcNAc(b1-2)Man(a1-3)[GlcNAc(b1-3)Gal(b1-4)GlcNAc(b1-2)Man(a1-6)]Man(b1-4)GlcNAc(b1-4)[Fuc(a1-6)]GlcNAc
# How it was run: as §1
# [25] = target: GlcNAc(b1-3)Gal(b1-4)GlcNAc(b1-2)[GlcNAc(b1-3)Gal(b1-4)GlcNAc(b1-6)]Man(a1-6)[GlcNAc(b1-3)Gal(b1-4)GlcNAc(b1-2)Man(a1-3)]Man(b1-4)GlcNAc(b1-4)GlcNAc
# How it was run: as §1
# [26] = target: GlcNAc(b1-3)Gal(b1-4)GlcNAc(b1-3)Gal(b1-4)GlcNAc
# How it was run: as §1
# [27] = target: GlcNAc(b1-3)Gal(b1-4)GlcNAc(b1-3)Gal(b1-4)GlcNAc(b1-2)Man(a1-3)[GlcNAc(b1-3)Gal(b1-4)GlcNAc(b1-3)Gal(b1-4)GlcNAc(b1-2)Man(a1-6)]Man(b1-4)GlcNAc(b1-4)GlcNAc
# How it was run: as §1
# [28] = target: GlcNAc(b1-3)Gal(b1-4)GlcNAc(b1-3)Gal(b1-4)GlcNAc(b1-2)Man(a1-3)[GlcNAc(b1-3)Gal(b1-4)GlcNAc(b1-3)Gal(b1-4)GlcNAc(b1-2)Man(a1-6)]Man(b1-4)GlcNAc(b1-4)[Fuc(a1-6)]GlcNAc
# How it was run: as §1
# [29] = target: GlcNAc(b1-3)Gal(b1-4)GlcNAc(b1-3)Gal(b1-4)GlcNAc(b1-2)[GlcNAc(b1-3)Gal(b1-4)GlcNAc(b1-3)Gal(b1-4)GlcNAc(b1-6)]Man(a1-6)[GlcNAc(b1-3)Gal(b1-4)GlcNAc(b1-3)Gal(b1-4)GlcNAc(b1-2)Man(a1-3)]Man(b1-4)GlcNAc(b1-4)[Fuc(a1-6)]GlcNAc
# How it was run: as §1
# [30] = target: GlcNAc(b1-3)Gal(b1-4)GlcNAc(b1-3)Gal(b1-4)GlcNAc(b1-3)Gal(b1-4)GlcNAc(b1-2)Man(a1-3)[GlcNAc(b1-3)Gal(b1-4)GlcNAc(b1-3)Gal(b1-4)GlcNAc(b1-3)Gal(b1-4)GlcNAc(b1-2)Man(a1-6)]Man(b1-4)GlcNAc(b1-4)GlcNAc
# How it was run: as §1
# [31] = target: GlcNAc(b1-3)Gal(b1-4)GlcNAc(b1-3)Gal(b1-4)GlcNAc(b1-3)Gal(b1-4)GlcNAc(b1-2)Man(a1-3)[GlcNAc(b1-3)Gal(b1-4)GlcNAc(b1-3)Gal(b1-4)GlcNAc(b1-3)Gal(b1-4)GlcNAc(b1-2)Man(a1-6)]Man(b1-4)GlcNAc(b1-4)[Fuc(a1-6)]GlcNAc
# How it was run: as §1
# [32] = target: GlcNAc(b1-3)Gal(b1-4)GlcNAc(b1-3)Gal(b1-4)GlcNAc(b1-3)Gal(b1-4)GlcNAc(b1-2)[GlcNAc(b1-3)Gal(b1-4)GlcNAc(b1-3)Gal(b1-4)GlcNAc(b1-3)Gal(b1-4)GlcNAc(b1-6)]Man(a1-6)[GlcNAc(b1-3)Gal(b1-4)GlcNAc(b1-3)Gal(b1-4)GlcNAc(b1-3)Gal(b1-4)GlcNAc(b1-2)Man(a1-3)]Man(b1-4)GlcNAc(b1-4)[Fuc(a1-6)]GlcNAc
# How it was run: as §1
# [33] = target: GlcNAc(b1-3)Gal(b1-4)GlcNAc(b1-3)Gal(b1-4)GlcNAc(b1-3)Gal(b1-4)GlcNAc(b1-3)Gal(b1-4)GlcNAc(b1-2)Man(a1-3)[GlcNAc(b1-3)Gal(b1-4)GlcNAc(b1-3)Gal(b1-4)GlcNAc(b1-3)Gal(b1-4)GlcNAc(b1-3)Gal(b1-4)GlcNAc(b1-2)Man(a1-6)]Man(b1-4)GlcNAc(b1-4)GlcNAc
# How it was run: as §1
# [34] = target: GlcNAc(b1-3)Gal(b1-4)GlcNAc(b1-3)Gal(b1-4)GlcNAc(b1-3)Gal(b1-4)GlcNAc(b1-3)Gal(b1-4)GlcNAc(b1-2)Man(a1-3)[GlcNAc(b1-3)Gal(b1-4)GlcNAc(b1-3)Gal(b1-4)GlcNAc(b1-3)Gal(b1-4)GlcNAc(b1-3)Gal(b1-4)GlcNAc(b1-2)Man(a1-6)]Man(b1-4)GlcNAc(b1-4)[Fuc(a1-6)]GlcNAc
# How it was run: as §1
# [35] = target: GlcNAc(b1-3)Gal(b1-4)GlcNAc(b1-3)Gal(b1-4)GlcNAc(b1-3)Gal(b1-4)GlcNAc(b1-3)Gal(b1-4)GlcNAc(b1-2)[GlcNAc(b1-3)Gal(b1-4)GlcNAc(b1-3)Gal(b1-4)GlcNAc(b1-3)Gal(b1-4)GlcNAc(b1-3)Gal(b1-4)GlcNAc(b1-6)]Man(a1-6)[GlcNAc(b1-3)Gal(b1-4)GlcNAc(b1-3)Gal(b1-4)GlcNAc(b1-3)Gal(b1-4)GlcNAc(b1-3)Gal(b1-4)GlcNAc(b1-2)Man(a1-3)]Man(b1-4)GlcNAc(b1-4)[Fuc(a1-6)]GlcNAc
# How it was run: as §1
binder,measurement,setting,value
Clec18C (Homo sapiens) (protein) MLHPETSPGRGHLLAVLLALLGTAWAEVWPPQLQEQAPMAGALNRKESFLLLSLHNRLRSWVQPPAADMRRLDWSDSLAQLAQARAALCGTPTPSLASGLWRTLQVGWNMQLLPAGLVSFVEVVSLWFAEGQRYSHAAGECARNATCTHYTQLVWATSSQLGCGRHLCSAGQAAIEAFVCAYSPRGNWEVNGKTIVPYKKGAWCSLCTASVSGCFKAWDHAGGLCEVPRNPCRMSCQNHGRLNISTCHCHCPPGYTGRYCQVRCSLQCVHGRLREEECSCVCDIGYGGAQCATKVHFPFHTCDLRIDGDCFMVSSEADTYYRARMKCQRKGGVLAQIKSQKVQDILAFYLGRLETTNEVIDSDFETRNFWIGLTYKTAKDSFRWATGEHQAFTSFAFGQPDNHGFGNCVELQASAAFNWNNQRCKTRNRYICQFAQEHISRWGPGS,glycan array binding signal (z-score),[1],-0.512
same,glycan array binding signal (z-score),[2],-0.079
same,glycan array binding signal (z-score),[3],-0.563
same,glycan array binding signal (z-score),[4],-0.535
same,glycan array binding signal (z-score),[5],-0.609
same,glycan array binding signal (z-score),[6],-0.549
same,glycan array binding signal (z-score),[7],-0.235
same,glycan array binding signal (z-score),[8],-0.165
same,glycan array binding signal (z-score),[9],-0.514
same,glycan array binding signal (z-score),[10],-0.59
same,glycan array binding signal (z-score),[11],0.724
same,glycan array binding signal (z-score),[12],-0.577
same,glycan array binding signal (z-score),[13],-0.642
same,glycan array binding signal (z-score),[14],-0.601
same,glycan array binding signal (z-score),[15],-0.551
same,glycan array binding signal (z-score),[16],-0.586
same,glycan array binding signal (z-score),[17],-0.552
same,glycan array binding signal (z-score),[18],-0.471
same,glycan array binding signal (z-score),[19],-0.552
same,glycan array binding signal (z-score),[20],-0.425
same,glycan array binding signal (z-score),GlcNAc(b1-3)Fuc,-0.583
same,glycan array binding signal (z-score),GlcNAc(b1-3)Gal,-0.081
same,glycan array binding signal (z-score),[21],-0.394
same,glycan array binding signal (z-score),GlcNAc(b1-3)Gal(b1-4)Glc,-0.407
same,glycan array binding signal (z-score),[22],-0.463
same,glycan array binding signal (z-score),[23],-0.186
same,glycan array binding signal (z-score),[24],-0.292
same,glycan array binding signal (z-score),[25],-0.368
same,glycan array binding signal (z-score),[26],-0.591
same,glycan array binding signal (z-score),[27],-0.223
same,glycan array binding signal (z-score),[28],-0.33
same,glycan array binding signal (z-score),[29],1.18
same,glycan array binding signal (z-score),[30],-0.514
same,glycan array binding signal (z-score),[31],-0.32
same,glycan array binding signal (z-score),[32],-0.388
same,glycan array binding signal (z-score),[33],-0.29
same,glycan array binding signal (z-score),[34],0.249
same,glycan array binding signal (z-score),[35],-0.439
